The results in this text go back to PMC12820563.

The list shows a part of the results. The list includes weakly bound sequences.

The target of the experiment is T1, MBP-FoxP3dN (UniProt Q99JB6).
T1 sequence: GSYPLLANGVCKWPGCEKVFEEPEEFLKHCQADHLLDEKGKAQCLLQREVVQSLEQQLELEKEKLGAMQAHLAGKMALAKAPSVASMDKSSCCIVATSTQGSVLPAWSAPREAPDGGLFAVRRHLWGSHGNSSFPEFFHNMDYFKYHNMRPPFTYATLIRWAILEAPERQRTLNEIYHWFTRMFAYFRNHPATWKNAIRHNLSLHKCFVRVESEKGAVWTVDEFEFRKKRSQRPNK
As to the kind of experiment: PD-seq (MBP pull-down with sequencing). Conditions: 20 mM Tris-HCl pH 7.5, 100 mM NaCl, 1.5 mM MgCl2, 0.4 uM protein, 0.1 uM dsDNA library, 30 min, room temperature, amylose pull-down; high values mean tight binding; double strand, one strand shown.
For “GATGATTGTTCTCCCAGCTGATGAATTATCGGATTCGAGTAAACAAATTTTCCTAATCTTTCTGTTCAAGCGCCATCTAC”, the binding signal (RPM ratio (pull-down/input)) worked out at 0.299. The value for “GATGATTGTTCTCCCAGCTGATGAATTTGCTATTTCGAGTAAACAAATTTTCCTAATCTTTCTGTTCAAGCGCCATCTAC” was 5.54; that for “GATGATTGTTCTCCCAGCTGATGAATTAGCAGCCTCGAGTAAACAAATTTTCCTAATCTTTCTGTTCAAGCGCCATCTAC” was 0.592. With “GATGATTGTTCTCCCAGCTGATGAATTCACGTAATCGAGTAAACAAATTTTCCTAATCTTTCTGTTCAAGCGCCATCTAC” the figure was 0.501; with “GATGATTGTTCTCCCAGCTGATGAATTGTGGGCATCGAGTAAACAAATTTTCCTAATCTTTCTGTTCAAGCGCCATCTAC”, 1.1. With “GATGATTGTTCTCCCAGCTGATGAATTTGGATCATCGAGTAAACAAATTTTCCTAATCTTTCTGTTCAAGCGCCATCTAC” the figure was 0.541; with “GATGATTGTTCTCCCAGCTGATGAATTAAAGACGTCGAGTAAACAAATTTTCCTAATCTTTCTGTTCAAGCGCCATCTAC”, 0.263. Turning to “GATGATTGTTCTCCCAGCTGATGAATTGGAGGCATCGAGTAAACAAATTTTCCTAATCTTTCTGTTCAAGCGCCATCTAC”, the binding signal (RPM ratio (pull-down/input)) turned out to be 1.07.

On to “GATGATTGTTCTCCCAGCTGATGAATTGGTGGGTTCGAGTAAACAAATTTTCCTAATCTTTCTGTTCAAGCGCCATCTAC”, for which the binding signal (RPM ratio (pull-down/input)) stood at 0.773. With “GATGATTGTTCTCCCAGCTGATGAATTATACTAATCGAGTAAACAAATTTTCCTAATCTTTCTGTTCAAGCGCCATCTAC” the figure was 0.484; with “GATGATTGTTCTCCCAGCTGATGAATTCCCACCCTCGAGTAAACAAATTTTCCTAATCTTTCTGTTCAAGCGCCATCTAC”, 0.254; with “GATGATTGTTCTCCCAGCTGATGAATTGGCACCGTCGAGTAAACAAATTTTCCTAATCTTTCTGTTCAAGCGCCATCTAC”, 0.334. With “GATGATTGTTCTCCCAGCTGATGAATTGGTCACTTCGAGTAAACAAATTTTCCTAATCTTTCTGTTCAAGCGCCATCTAC” the figure was 0.738; with “GATGATTGTTCTCCCAGCTGATGAATTGCCGGCCTCGAGTAAACAAATTTTCCTAATCTTTCTGTTCAAGCGCCATCTAC”, 0.572. With “GATGATTGTTCTCCCAGCTGATGAATTGCGCCTGTCGAGTAAACAAATTTTCCTAATCTTTCTGTTCAAGCGCCATCTAC” the figure was 6.14. Take “GATGATTGTTCTCCCAGCTGATGAATTCAATGAATCGAGTAAACAAATTTTCCTAATCTTTCTGTTCAAGCGCCATCTAC”: the binding signal (RPM ratio (pull-down/input)) was found to be 0.235. As to “GATGATTGTTCTCCCAGCTGATGAATTCCAGTGTTCGAGTAAACAAATTTTCCTAATCTTTCTGTTCAAGCGCCATCTAC”, the binding signal (RPM ratio (pull-down/input)) was 0.673.

Consider “GATGATTGTTCTCCCAGCTGATGAATTTGTCTGATCGAGTAAACAAATTTTCCTAATCTTTCTGTTCAAGCGCCATCTAC”, for which the binding signal (RPM ratio (pull-down/input)) is 1.23.

Turning to “GATGATTGTTCTCCCAGCTGATGAATTTCCCGATTCGAGTAAACAAATTTTCCTAATCTTTCTGTTCAAGCGCCATCTAC”, the binding signal (RPM ratio (pull-down/input)) was 0.191. With “GATGATTGTTCTCCCAGCTGATGAATTTATAAAGTCGAGTAAACAAATTTTCCTAATCTTTCTGTTCAAGCGCCATCTAC” the figure was 0.295; with “GATGATTGTTCTCCCAGCTGATGAATTGGCATTCTCGAGTAAACAAATTTTCCTAATCTTTCTGTTCAAGCGCCATCTAC”, 3.49.

Turning to “GATGATTGTTCTCCCAGCTGATGAATTACCACACTCGAGTAAACAAATTTTCCTAATCTTTCTGTTCAAGCGCCATCTAC”, the binding signal (RPM ratio (pull-down/input)) worked out at 0.478. The value for “GATGATTGTTCTCCCAGCTGATGAATTAACGCTCTCGAGTAAACAAATTTTCCTAATCTTTCTGTTCAAGCGCCATCTAC” was 0.605; that for “GATGATTGTTCTCCCAGCTGATGAATTACGGCCTTCGAGTAAACAAATTTTCCTAATCTTTCTGTTCAAGCGCCATCTAC” was 1.8; that for “GATGATTGTTCTCCCAGCTGATGAATTCTCTTCGTCGAGTAAACAAATTTTCCTAATCTTTCTGTTCAAGCGCCATCTAC” was 0.288.

As for “GATGATTGTTCTCCCAGCTGATGAATTGCGACGGTCGAGTAAACAAATTTTCCTAATCTTTCTGTTCAAGCGCCATCTAC”, the binding signal (RPM ratio (pull-down/input)) is 0.529. With “GATGATTGTTCTCCCAGCTGATGAATTAGGGAGGTCGAGTAAACAAATTTTCCTAATCTTTCTGTTCAAGCGCCATCTAC” the figure was 0.259; with “GATGATTGTTCTCCCAGCTGATGAATTGCACTTCTCGAGTAAACAAATTTTCCTAATCTTTCTGTTCAAGCGCCATCTAC”, 1.28; with “GATGATTGTTCTCCCAGCTGATGAATTCAATTTCTCGAGTAAACAAATTTTCCTAATCTTTCTGTTCAAGCGCCATCTAC”, 1.07. For “GATGATTGTTCTCCCAGCTGATGAATTTGTCCTCTCGAGTAAACAAATTTTCCTAATCTTTCTGTTCAAGCGCCATCTAC”, the binding signal (RPM ratio (pull-down/input)) turned out to be 3.28. For the sequence “GATGATTGTTCTCCCAGCTGATGAATTGTTGGAGTCGAGTAAACAAATTTTCCTAATCTTTCTGTTCAAGCGCCATCTAC”, the binding signal (RPM ratio (pull-down/input)) was 0.449.
